Results from the supplement of paper PMC3334620.
Over roughly 33,000 sequences, “E-score (-0.5 to 0.5)” has its median near -0.054; the highest 2% begin near 0.35. The list shows a part of the results.

These sequences were tested against T1, Stb5 (UniProt P38699) (assay: PBM E-score (8-mer binding enrichment) (E-score (-0.5 to 0.5)); higher = stronger / more preferred TF binding; most listed sequences are background and not binding sites). Conditions: protein concentration: 200 nM; construct: GST-full length.
T1 sequence: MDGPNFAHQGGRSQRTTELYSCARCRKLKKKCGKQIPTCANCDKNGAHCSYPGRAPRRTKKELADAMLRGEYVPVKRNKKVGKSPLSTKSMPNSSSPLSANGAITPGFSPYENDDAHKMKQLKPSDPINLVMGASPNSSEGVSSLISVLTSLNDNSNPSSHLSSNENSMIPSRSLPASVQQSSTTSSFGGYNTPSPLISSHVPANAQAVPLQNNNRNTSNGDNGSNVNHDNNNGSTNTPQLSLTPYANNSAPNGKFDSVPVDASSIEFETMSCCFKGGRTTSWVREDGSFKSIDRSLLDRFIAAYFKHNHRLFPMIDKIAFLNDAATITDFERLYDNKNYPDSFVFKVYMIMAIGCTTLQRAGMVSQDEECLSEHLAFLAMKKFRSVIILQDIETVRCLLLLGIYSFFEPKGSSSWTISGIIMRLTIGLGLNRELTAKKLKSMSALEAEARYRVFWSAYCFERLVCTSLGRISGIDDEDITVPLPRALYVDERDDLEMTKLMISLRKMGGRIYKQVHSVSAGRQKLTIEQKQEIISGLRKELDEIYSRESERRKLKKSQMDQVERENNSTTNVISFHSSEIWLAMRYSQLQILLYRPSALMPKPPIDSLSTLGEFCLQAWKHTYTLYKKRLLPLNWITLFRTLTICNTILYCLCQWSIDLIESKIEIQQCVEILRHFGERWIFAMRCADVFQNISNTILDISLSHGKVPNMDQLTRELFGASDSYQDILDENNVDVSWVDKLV
Experimental: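 Universal 'all 10-mer' protein binding microarrays (Agilent AMADID 015681) probed with GST-tagged S. cerevisiae TFs (full-length or DBD) made by in vitro transcription/translation (PURExpress), about 100-200 nM. Bound TF was detected with fluorescent anti-GST. Each ungapped 8-mer (which stands for itself and its reverse complement) is scored by the PBM enrichment score (E-score), a modified Wilcoxon-Mann-Whitney statistic from -0.5 to +0.5, computed with the Universal PBM Analysis Suite. Scale: above 0.35 generally sequence-specific binding.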

Row | Sequence | PBM E-score
1 | ACGGTGCA | 0.127
2 | CTCGGGAC | 0.203
3 | TACTGTGA | -0.121
4 | GGGACACC | 0.202
5 | ACGTTGTA | -0.0486
6 | CAAGTGCC | 0.147
7 | TACAAAGA | -0.0906
8 | CCGGACCG | 0.308
9 | ACCGATAG | 0.167
10 | AGCAATCC | -0.0149
11 | CCGGCGGA | 0.385
12 | CATCAGAG | -0.119
13 | GCTTGAAC | 0.0794
14 | CAATATTC | -0.139
15 | CTCATTTA | -0.0347
16 | ATGCGGGG | 0.27
17 | CCAGGAAC | -0.0643
18 | AGGTCCAA | -0.167
19 | CAGGATAA | -0.149
20 | AACGGATT | 0.212
21 | GCAATGGC | 0.0959
22 | TCAAGGCA | -0.301
23 | AGCCAGAA | -0.157
24 | CCTCGGAG | 0.149
25 | AACTGAAG | -0.177

Row | Sequence | PBM E-score
26 | AGACAGTC | -0.0576
27 | CACTCTCC | -0.127
28 | CCTTAATA | 0.03
29 | CCCCCCCA | -0.263
30 | ACTGGTGA | -0.148
31 | GATGCATA | -0.237
32 | GGTACAGA | -0.0467
33 | CAAGATAG | -0.113
34 | CATCCTGC | -0.226
35 | GCGATTAC | 0.035
36 | CCACTCAC | 0.0111
37 | GACCGCGA | 0.31
38 | ATTTTTGC | -0.102
39 | GCGTGAGA | -0.198
40 | AACCTTTC | -0.118
41 | ATTGTCGG | 0.282
42 | CGGAAAAG | 0.0372
43 | AAGAGAGT | -0.0713
44 | AACCAGCA | -0.238
45 | CCACAACC | -0.0786
46 | CTAGAGCC | -0.102
47 | CCCGACAC | 0.34
48 | ATCCCATA | 0.0102
49 | CAAGTTGG | -0.0545
50 | CATGGTCC | -0.108

Row | Sequence | PBM E-score
51 | AGTCACAA | -0.296
52 | ATACTGCG | -0.067
53 | GCAAGCCC | 0.117
54 | ATAGCAAA | -0.229
55 | CATGCGGC | 0.0818
56 | GTATGAGA | -0.0179
57 | ATGAGGAA | -0.0881
58 | AAGCGCGG | 0.194
59 | CCAAGCGA | -0.153
60 | AGTGGGTA | 0.00605
61 | GTTGGGGA | -0.0548
62 | CACATGGG | -0.303
63 | AGCATCCC | -0.162
64 | AGACCGAT | 0.272
65 | CACGCAGA | -0.257
66 | ACTACAAC | 0.0671
67 | AAAAACGA | -0.246
68 | TATGGGAA | -0.21
69 | TCTCCGCA | 0.216
70 | CAGGTACC | 0.0888
71 | GAAGCGTC | -0.317
72 | CCTCCTCG | -0.23
73 | GAACGGGC | 0.208
74 | AGTCTGCG | -0.124
75 | GGTATCAA | 0.222

Row | Sequence | PBM E-score
76 | AGCACGAG | -0.0272
77 | AGGGATCC | 0.0215
78 | ATGTCGCG | -0.0197
79 | CGAGAACG | 0.123
80 | GCTGACCA | -0.169
81 | GCGAGACC | -0.175
82 | ACTTGTTC | -0.0737
83 | AATGAATT | 0.0381
84 | GAAGAACC | 0.0642
85 | CCTCCCGC | -0.0684
86 | ACAGGACC | 0.075
87 | CTGCTGCC | -0.0349
88 | GGTAGACA | 0.0136
89 | ATCTCTTA | 0.0184
90 | ATGTGCAC | -0.149
91 | AGAGTCCC | 0.0723
92 | AAGCAGCT | -0.132
93 | ACGAACGG | 0.294
94 | AATAGAGA | -0.0405
95 | CATCCCCA | -0.318
96 | CAAGCGAG | -0.135
97 | GCATAGAA | -0.119
98 | CATTAATA | -0.0218
99 | ACGTCTCG | -0.29
100 | GTGGAGTA | -0.234

Row | Sequence | PBM E-score
101 | AACCGTGG | -0.103
102 | ACCCAGTA | -0.243
103 | CCGCGCGC | 0.281
104 | GATCAAGA | 0.00171
105 | CACCGAGG | 0.23
106 | AATGAAAC | -0.0879
107 | AACGCGGG | 0.285
108 | CATCAGCC | -0.215
109 | ACCTCCTG | -0.317
110 | AAACTCGG | 0.262
111 | ACCCTGGG | -0.216
112 | AGATATTA | 0.0684
113 | CCAGCCAG | -0.223
114 | TACCTTCA | -0.00879
115 | AGACGCCA | -0.181
116 | GCGATCCA | -0.067
117 | ACCTGGGG | -0.155
118 | CCGCTTAA | 0.233
119 | CGACGCCC | 0.132
120 | CTGCATTA | -0.0653
121 | CCAGAGGC | -0.144
122 | TAAGAGTA | -0.151
123 | CATGATCA | -0.119
124 | AGGCTATA | 0.0655
125 | GGACTGGA | -0.154

Row | Sequence | PBM E-score
126 | ATTTACAG | -0.193
127 | AAGTGTCT | -0.215
128 | AAAGAGTC | 0.00738
129 | GCACCGCA | 0.361
130 | ACAGATTC | -0.0825
131 | AGGTGAAG | -0.154
132 | TGTCGACA | -0.0858
133 | GTACATAA | 0.0602
134 | ACCGCCAC | 0.316
135 | ATCGGCAA | 0.265
136 | ACTGCAGC | -0.0924
137 | AAGGAATT | -0.124
138 | GCCGCCCC | 0.388
139 | TGACACAA | -0.178
140 | CCATCCCA | -0.035
141 | AATGTGTC | 0.0439
142 | CCCTTAGA | -0.221
143 | CGTTCTCA | -0.101
144 | GGTTCGAC | 0.0376
145 | CAACCATC | -0.0877
146 | ACTACGCA | -0.0387
147 | AACGGGCC | 0.147
148 | CAGAGAGC | -0.164
149 | AGTGCATA | -0.112
150 | ATCTCCCC | 0.0718

Row | Sequence | PBM E-score
151 | ACAAATTA | 0.0545
152 | ATGGGTCA | -0.28
153 | CTATGCAC | -0.212
154 | TGAGCCAA | -0.167
155 | GACACACC | 0.154
156 | CAACTGGA | -0.0931
157 | GATGCGCC | 0.0417
158 | AAGAATTG | -0.0152
159 | TAGCCATA | -0.279
160 | ATGGGAGC | -0.051
161 | ACGCTAGC | -0.149
162 | AGAATTAC | 0.0808
163 | GAATGTCA | -0.167
164 | CTCACACA | -0.226
165 | CCAGACCA | -0.219
166 | GCTAGAAA | -0.0115
167 | AGATATCG | -0.08
168 | AGGGACCG | 0.218
169 | CGACGGGA | 0.297
170 | AGTAGTAA | -0.263
171 | CTCTTGAA | -0.13
172 | CACTGTGA | -0.0856
